Measured values reported in the supplement of paper PMC12217912.
The other results are listed elsewhere or left out. Sequences were assembled here from the parent chain. Values near 0.05 are background.

B1: TEV protease; numbered along this chain (parent)
chain: MGESLFKGPRDYNPISSSICHLTNESDGHTTSLYGIGFGPFIITNKHLFRRNNGTLVVQSLHGVFKVKDTTTLQQHLVDGRDMIIIRMPKDFPPFPQKLKFREPQREERICLVTTNFQTKSMSSMVSDTSCTFPSGDGIFWKHWIQTKDGQCGSPLVSTRDGFIVGIHSASNFTNTNNYFTSVPKNFMELLTNQEAQQWVSGWRLNADSVLWGGHKVFMVKPEEPFQPVKEATQL

Variants of: B1
Test: raw area under fraction-flipped curve 0-4 h after induction (AUC4h, not background-subtracted), DNA-recorder readout of cleavage of the substrate (dimensionless); higher = more cleavage of the substrate by the protease variant
Conditions: temperature: 34 °C; time window: 0-4 h after rhamnose induction
Procedure: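 In vivo DNA recorder in E. coli TOP10(DE3) ΔrhaA at 34 °C. Each TEVp single-site mutant (parent TEVp 0) is paired with a single-site variant of the 7-mer TEVs (canonical ENLYFQ|S). The substrate sits between flexible linkers in a Bxb1-sfGFP-TEVs-SsrA fusion, so cleavage stabilises Bxb1 and speeds flipping of a recombination array, read by NGS. The value is the raw area under the fraction-flipped curve over 0-4 h after rhamnose induction (AUC4h), with ≥20 reads per time point. It is not background-subtracted; inactive controls average about 0.047.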
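Further: Bxb1 expression induced with 0.2% (w/v) L-rhamnose at OD600 near 0.5, cultures sampled hourly, flipped fraction per protease–substrate barcode pair counted by paired-end Illumina sequencing.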

| Variant | area with substrate EALYFQS | area with substrate ECLYFQS | area with substrate EDLYFQS | area with substrate EELYFQS | area with substrate EGLYFQS | area with substrate EILYFQS | area with substrate ELLYFQS | area with substrate EMLYFQS | area with substrate EPLYFQS | area with substrate EQLYFQS | area with substrate ERLYFQS | area with substrate ESLYFQS | area with substrate ETLYFQS | area with substrate EVLYFQS | area with substrate EWLYFQS | area with substrate EYLYFQS | area with substrate EHLYFQS | area with substrate EKLYFQS | area with substrate EFLYFQS |
| --- | --- | --- | --- | --- | --- | --- | --- | --- | --- | --- | --- | --- | --- | --- | --- | --- | --- | --- | --- |
| G37I | 0.117 | 0.0615 | 0.0971 | 0.111 | 0.0824 | 0.0714 | 0.077 | 0.0916 | 0.107 | 0.0987 | 0.0703 | 0.0892 | 0.0781 | 0.0775 | 0.0471 | 0.0635 |  |  |  |
| K46A | 0.106 | 0.123 | 0.159 | 0.159 | 0.109 | 0.0953 | 0.12 | 0.125 |  | 0.122 |  | 0.125 | 0.0917 | 0.127 | 0.153 | 0.151 | 0.153 | 0.138 |  |
| K46T | 0.0922 | 0.0759 | 0.117 | 0.0935 |  | 0.0644 | 0.0803 | 0.085 |  | 0.0547 | 0.0836 | 0.0804 |  | 0.0671 |  |  | 0.0992 | 0.0758 | 0.0679 |
| K46M | 0.0945 | 0.0763 | 0.0723 | 0.0812 | 0.0619 | 0.0706 | 0.0749 |  | 0.111 | 0.0866 |  | 0.0787 | 0.0814 | 0.0884 | 0.103 | 0.0023 | 0.0874 | 0.0806 |  |
| K46C | 0.141 | 0.0973 | 0.131 | 0.124 | 0.0862 | 0.0855 | 0.0844 |  | 0.0995 | 0.108 | 0.11 | 0.1 |  |  | 0.0887 | 0.0939 | 0.103 | 0.0871 |  |
| F41I | 0.123 | 0.0884 | 0.119 | 0.111 |  |  | 0.0713 | 0.101 | 0.113 |  | 0.0966 | 0.0889 |  | 0.0933 |  | 0.0978 | 0.102 | 0.0776 | 0.0949 |
| F49A | 0.0388 | 0.0651 | 0.0748 | 0.0634 | 0.0464 | 0.0531 | 0.057 | 0.0503 |  | 0.0569 | 0.0529 | 0.0538 | 0.0581 | 0.0775 | 0.0557 | 0.0579 | 0.0393 |  |  |
| F49M | 0.0781 | 0.0698 | 0.0822 |  | 0.0602 | 0.0434 | 0.0652 | 0.0617 | 0.0774 | 0.0672 | 0.0626 | 0.0684 |  | 0.0633 | 0.0645 | 0.0807 | 0.0637 | 0.0716 | 0.0691 |
| F49I | 0.0599 | 0.063 | 0.0788 | 0.0594 | 0.0587 | 0.0589 |  | 0.0957 | 0.0632 | 0.104 | 0.0658 | 0.0663 | 0.0732 | 0.0762 | 0.053 | 0.0676 | 0.0567 | 0.0833 | 0.0559 |
| T44P | 0.0481 | 0.0389 | 0.0423 | 0.0615 |  | 0.0328 |  |  |  | 0.049 | 0.0413 | 0.0543 |  |  | 0.0252 | 0.0213 | 0.0298 |  |  |
| T44S | 0.111 | 0.0979 | 0.106 | 0.0909 | 0.0807 |  | 0.0766 | 0.107 | 0.104 | 0.112 | 0.102 | 0.0948 | 0.11 | 0.099 | 0.0824 | 0.0903 | 0.0975 | 0.097 |  |
| T31A | 0.106 | 0.105 | 0.111 | 0.117 | 0.0755 | 0.103 | 0.0909 |  |  |  | 0.159 | 0.124 | 0.138 | 0.111 |  | 0.101 |  |  |  |
| R50H | 0.123 | 0.108 | 0.144 | 0.16 |  | 0.0852 |  | 0.11 | 0.131 | 0.144 | 0.126 |  |  | 0.0918 | 0.0997 | 0.125 |  | 0.116 |  |
| R50P | 0.0871 | 0.0796 | 0.108 | 0.107 |  | 0.0766 | 0.0836 | 0.0879 | 0.104 | 0.12 | 0.0963 | 0.0868 | 0.142 | 0.0782 | 0.0978 | 0.067 | 0.0804 | 0.0614 |  |
| R50K | 0.132 | 0.0936 | 0.154 |  |  | 0.0978 | 0.0935 | 0.118 | 0.124 | 0.0799 | 0.106 | 0.0886 | 0.0729 |  | 0.112 | 0.102 | 0.1 | 0.0954 | 0.0762 |
| F38I | 0.104 | 0.0963 | 0.0833 |  | 0.102 | 0.0746 | 0.0834 |  | 0.101 |  | 0.08 | 0.0691 | 0.0808 | 0.0884 | 0.037 | 0.0696 |  | 0.102 | 0.0878 |
| F38C | 0.13 | 0.0823 | 0.119 | 0.118 | 0.09 | 0.0788 | 0.0605 | 0.0844 | 0.108 | 0.0981 | 0.0956 | 0.0921 |  | 0.08 | 0.0803 | 0.112 |  | 0.114 | 0.0729 |
| F38W | 0.131 | 0.133 | 0.155 | 0.124 |  | 0.0883 | 0.13 | 0.115 | 0.128 | 0.125 | 0.0987 | 0.135 |  | 0.105 | 0.087 | 0.0836 | 0.109 | 0.122 | 0.132 |
| F38Y | 0.126 | 0.102 | 0.118 | 0.135 | 0.0692 | 0.101 |  | 0.109 | 0.119 | 0.121 | 0.147 | 0.116 |  | 0.0836 | 0.0908 | 0.126 | 0.099 | 0.104 | 0.117 |
| I42A | 0.065 | 0.064 | 0.0757 |  | 0.052 | 0.0688 |  | 0.059 | 0.0764 |  | 0.0886 | 0.065 |  | 0.0824 | 0.0465 |  |  | 0.058 | 0.0789 |
| I42F | 0.0588 | 0.0549 | 0.0714 | 0.102 | 0.0656 | 0.0652 | 0.0805 | 0.0841 | 0.0795 |  | 0.0668 | 0.071 |  | 0.0797 | 0.0639 |  |  | 0.068 |  |
| I42R | 0.0513 | 0.045 | 0.0482 | 0.0484 | 0.0283 | 0.0386 | 0.0442 | 0.0212 | 0.0415 | 0.04 | 0.0449 | 0.0474 | 0.0367 | 0.0393 | 0.0318 | 0.0513 | 0.0276 | 0.0434 |  |
| I42L | 0.124 | 0.0878 | 0.106 |  | 0.103 | 0.0951 |  | 0.106 | 0.117 | 0.136 | 0.1 | 0.0892 |  | 0.0965 | 0.0986 |  | 0.137 | 0.0928 | 0.115 |
